These results are taken from the supplement of paper PMC11417369.

The list shows a part of the results.

This experiment concerns PfHDP1 homeodomain (GST-tagged). As to the kind of experiment: gcPBM binding intensity (ln(normalized median fluorescence intensity)); higher = stronger DNA binding. The gist of the method: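 For binding intensity, the highest Masliner-normalised natural-log median intensity across replicate spots of either probe orientation was taken. Protein bound to the array was stained with Alexa488 anti-GST antibody and scanned at 488 nm. The protein, GST-tagged P. falciparum DNA-binding domains from E. coli at about 25 μg on average, had been applied for 1 h to an Agilent 4 × 180k array of primer-extended double-stranded 36-bp intergenic genomic probes and negative controls.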
As for “CATTTGCCCAGGCACACACACATAAAAAGAAAAATA [CACACA_site356]”, the “gcPBM binding intensity (ln)” value is 6.34.
As to “AATGTGTAGACACGCACACACAAAAAAATATATATA [CACACA_site5595]”, the “gcPBM binding intensity (ln)” value was found to be 6.82.
The value for “AATGTAGAAATGGGTGCACACACATATATAATATAT [CACACA_site8799]” was 10.2; that for “GTTTTATTTTCAATGTGTACTTATTATTTGATATAC [XGTACX_site6402]” was 6.82.
Then “GTACCTATTTCATACACACACACACCCAAACAAACA [CACACA_site976]”, with 7.5.
Consider “GAAACAATTTGATATTGTACATAAATAAATAAAAAC [XGTACX_site8869]”, for which the “gcPBM binding intensity (ln)” value was 6.88.
“AACATTGATAAATATAAACACACGAAAACAGACATA [CACACA_site490]”: the “gcPBM binding intensity (ln)” value came out at 7.13.
“TAATTTTTTTTAATAACACACATATAAATATAAATA [CACACA_site6521]”: the “gcPBM binding intensity (ln)” value was determined as 6.32.
“CATTTGCACCCGCACACACACATAAAAAGAAAAATA [CACACA_site4350]”: the “gcPBM binding intensity (ln)” value is 10.7.
As for “CTTGTACCTAGAAATACACACAATTCTATAACTTAT [CACACA_site7355]”, the “gcPBM binding intensity (ln)” value stood at 6.45.
“AATATAAATAAAAACACACACACACCGATATATATA [CACACA_site5283]”: the “gcPBM binding intensity (ln)” value is 7.05.
For the sequence “AAGATTAGGTTAATTAGTACTTATTATATTGTAATG [XGTACX_site3653]”, the “gcPBM binding intensity (ln)” value came out at 6.06.
The value for “GATCCATTATTGATCCGTACTTATTCATGTTATATA [XGTACX_site5946]” was 6.67.
Then “TGTTATAAGATTTATGTACACACATATACACCCCTC [CACACA_site8141]”, with 7.22; and TATATATATATATGTATGCACTTTAATTTTATAAGG, with 9.31; and “TATATATGTATATATACACACAACGGTTATAAATAT [CACACA_site1128]”, with 7.
“AGAGAATAAATATAAAGTACATATATAAATATATAT [XGTACX_site5055]”: the “gcPBM binding intensity (ln)” value came to 6.31.
“GTATATAAAAATTCATGTACATATTATTATTTTTAA [XGTACX_site658]”: the “gcPBM binding intensity (ln)” value was 6.59.
The value for “ATGTTATAAATCTTAATATATATATGCAAAAGAGAA [XGTACX_negctrl_site521]” was 7.75; that for “ACATATACAAAACACACACACAACGTTTTAATAAAT [CACACA_site1979]” was 6.92.
Then “CATACATTTAAAAAGTGTACGTATATGAAAAAAGGA [XGTACX_site6512]”, with 6.82; and “ACCTTTGTAGTTGGTCCACACACATATATGGAAGAA [CACACA_site8351]”, with 6.82; and “ACATATATATAATATATATATCATCATATTTTCTTA [CACACA_negctrl_site853]”, with 6.33.
For “ATATGTGTTATTTATACATGCAGAAGAATATCTATT [TGCATGCA_site828]”, the “gcPBM binding intensity (ln)” value is 6.64.
“TGTGTGTGTATATGTGTGCACATATAAAATAGAAGA [GTGCAC_site9714]”: the “gcPBM binding intensity (ln)” value was 10.5.
In the case of “CTCAATATTATTACTACACACAAATTAAAATTTTCC [CACACA_site4203]”, the “gcPBM binding intensity (ln)” value was determined as 6.7.
For the sequence TCATTTTTTTGTTTGGTGCGACTTGAAAATTTGATT, the “gcPBM binding intensity (ln)” value amounted to 6.95.
For “TTATAACTTTTGAGCACACACAAGCATATAAATATA [CACACA_site6933]”, the “gcPBM binding intensity (ln)” value is 6.85.
With “TTGTACATCTTTTGCACACGTAATGTTATTATAATA [CACACA_site1258]”, the “gcPBM binding intensity (ln)” value was determined as 10.7.
As for “AAATACTGTAAAAAAGCATGCCACTAATAATAATTA [TGCATGCA_site759]”, the “gcPBM binding intensity (ln)” value was determined as 6.33.
“GTATATGTACTATACGCACACACACCCACATATATA [CACACA_site9062]”: the “gcPBM binding intensity (ln)” value turned out to be 7.49.
The value for “ATATATATTATATGCACACTAATAAGACTATTTAAA [CACACA_site3554]” was 9.8; that for “GTACCTATTTCATACACACACACACGCAAACAAACA [CACACA_site6590]” was 7.81; that for “ATATAGATTCGACACACACACAAAAAAAAAAAAAAA [CACACA_site7677]” was 6.41.
The value for “TGGTATATTATTTTTTGTACACATAAATGAAACATT [XGTACX_site5345]” was 6.73; that for “CGTATATCACCAACTAGTACATATAAATAAATAAAT [XGTACX_site8837]” was 6.62.
As for “ATATATATAATAAACACACACATATACATAGATGTA [CACACA_site5841]”, the “gcPBM binding intensity (ln)” value came out at 6.89.
For the sequence “ATATATATATATATATGTACATATTATTATTTTGAT [XGTACX_site4752]”, the “gcPBM binding intensity (ln)” value was determined as 9.41.
Turning to “AATAATCATGATCAAAGTACGTATGATTAAAAAAAA [XGTACX_site4916]”, the “gcPBM binding intensity (ln)” value worked out at 6.68.
The value for “TATGACCTTAGTAATTGTACACAAACATATTAATAT [XGTACX_site3340]” was 6.48; that for “GAGTATATGATATATATATATATATAAAAAAAAAAA [GTGCAC_negctrl_site99]” was 6.78; that for “TATATGTAAATGGACACACACATATATATATATATA [CACACA_site3659]” was 9.29.
Turning to “TTATAATATTCATAAGGTACAGTTTATATATGTTAT [XGTACX_site8442]”, the “gcPBM binding intensity (ln)” value was 6.11.
As to “TTGAGTTGTATAAAAAGTACAAGGTTTTAACTAAAT [XGTACX_site1447]”, the “gcPBM binding intensity (ln)” value amounted to 6.43.
As to “TCAACTATCAATATAGTGCATTTTTTTTGGAAAACC [GTGCAC_site9927]”, the “gcPBM binding intensity (ln)” value turned out to be 8.2.
In the case of “TATCAAAATTAGTATACACACAAAATTAATCAAATA [CACACA_site7117]”, the “gcPBM binding intensity (ln)” value came out at 6.25.
Regarding “CCTATATAATATATTTGTACTTAATAATTAAAGTGT [XGTACX_site5151]”, the “gcPBM binding intensity (ln)” value was found to be 6.93.
Regarding “TATATATATATATATTGTACATATGTAACCTTTTAA [XGTACX_site3914]”, the “gcPBM binding intensity (ln)” value stood at 8.99.
Take “ATAAGATTAAACATTGCACACAGAAATATATTTTCT [CACACA_site8743]”: the “gcPBM binding intensity (ln)” value stood at 9.1.
In the case of “CATTTTGTTTTAAAGTGTACATTATGTAATATAAAA [XGTACX_site647]”, the “gcPBM binding intensity (ln)” value is 6.54.
For “ATTTATATTACCCTTGCATGTAGGTGCAATTTTTTT [TGCATGCA_site757]”, the “gcPBM binding intensity (ln)” value was determined as 10.5.
Turning to “TTTTTATAGGTAAAAACACACGCTAAAAATAATTAA [CACACA_site3731]”, the “gcPBM binding intensity (ln)” value came to 6.41.
Then “AGGTACTTTTTTAAAACACACATATAATAAATACAC [CACACA_site4730]”, with 7.03; and “AATAAATATATATTCACACACAAACATATATATATA [CACACA_site4023]”, with 9.01; and “AAATAAATAAATAAATAAACAAATATGTATAAATGG [XGTACX_negctrl_site153]”, with 6.4.
As to “TTTATAATTTATATCACACACATATATATATAGTAA [CACACA_site8]”, the “gcPBM binding intensity (ln)” value turned out to be 6.6.
Then “ATATATATATATAAAAGTACTTATTTTTATTTACAT [XGTACX_site4299]”, with 8.95.
